Results from EP4692105A1, “CYCLIC POLYPEPTIDE COMPOUND AND USE THEREOF” (Bivision Pharmaceuticals, Inc, priority 2023, dated 2024).
For at least one compound, name, drawing or mass did not settle the structure. Numbered stars: 1 amine (or outer) side, 2 acyl side, 3 side chain; on linkers, the order of the positions; unused ones are H or OH. Bridge positions count the residues as written; N and C are the ends. Square brackets hold non-standard residues; d marks the D form. Side chains are listed from the residue outwards. Peptide text beside a SMILES is read from it. * marks the point of attachment. Acetyl(4-DOTA-piperazinyl) = O=C(O)CN1CCN(CC(=O)O)CCN(CC(=O)N2CCN(CC(=O)*)CC2)CCN(CC(=O)O)CC1; NH(CH2)2(4-DOTA-piperazinyl) = O=C(O)CN1CCN(CC(=O)O)CCN(CC(=O)N2CCN(CCN*)CC2)CCN(CC(=O)O)CC1; NH(CH2)2O(CH2)2NHDOTA = O=C(O)CN1CCN(CC(=O)O)CCN(CC(=O)NCCOCCN*)CCN(CC(=O)O)CC1; X3 = O=C(O)CN1CCN(CC(=O)O)CCN(CC(=O)NCCOCCOCCOCCN*)CCN(CC(=O)O)CC1; DOTA = O=C(O)CN1CCN(CC(=O)O)CCN(CC(=O)*)CCN(CC(=O)O)CC1; Pyridine(2,6-diCH2) = c1cc(C[*:1])nc(C[*:2])c1; mXylylene = c1cc(C[*:1])cc(C[*:2])c1; Ethylenediamine = C(CN[*:2])N[*:1]; Cha = N[C@@H](CC1CCCCC1)C(=O)O; d(β3hD) = NC(CC(=O)O)CC(=O)O; Aze = O=C(O)[C@@H]1CCN1; Dab = NCC[C@H](N)C(=O)O; Hexanoyl = CCCCCC(=O)*; CO = O=C([*:1])[*:2]; GABA = NCCCC(=O)O; NHBu = CCCCN*

What follows are compounds tested against T1, FAP protein (Homo sapiens, UniProt Q12884) (assay: Biacore (SPR) test of compound affinity to FAP protein). Settings: Biacore 8K, SA chip, 15 °C, single cycle, 1:1 binding model; pKD = -LogKD.
T1 construct: purchased Sinobiological
T1 sequence (Q12884 1-760): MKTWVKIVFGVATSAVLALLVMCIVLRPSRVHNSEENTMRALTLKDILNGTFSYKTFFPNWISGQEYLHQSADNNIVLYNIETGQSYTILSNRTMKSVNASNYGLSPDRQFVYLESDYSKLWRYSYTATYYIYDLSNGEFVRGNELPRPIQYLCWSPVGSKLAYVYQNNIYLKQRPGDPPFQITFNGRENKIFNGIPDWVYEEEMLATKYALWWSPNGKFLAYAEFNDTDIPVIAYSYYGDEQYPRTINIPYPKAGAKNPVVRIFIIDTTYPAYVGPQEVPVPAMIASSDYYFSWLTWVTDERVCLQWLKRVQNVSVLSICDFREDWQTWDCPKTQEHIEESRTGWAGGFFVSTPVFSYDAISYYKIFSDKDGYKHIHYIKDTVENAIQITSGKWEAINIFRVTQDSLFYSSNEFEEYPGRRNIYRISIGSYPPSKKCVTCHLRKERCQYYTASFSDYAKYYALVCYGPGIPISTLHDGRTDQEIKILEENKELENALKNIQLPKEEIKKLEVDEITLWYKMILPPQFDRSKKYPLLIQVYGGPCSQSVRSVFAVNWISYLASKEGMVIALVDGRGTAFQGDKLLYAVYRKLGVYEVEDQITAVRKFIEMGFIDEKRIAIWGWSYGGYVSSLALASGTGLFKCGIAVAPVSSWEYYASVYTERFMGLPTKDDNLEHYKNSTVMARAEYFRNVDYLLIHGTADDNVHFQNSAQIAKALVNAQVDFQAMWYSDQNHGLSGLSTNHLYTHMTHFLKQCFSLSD
Procedure: The Biacore 8K (Cytiva) instrument was used to detect ligand binding of the FAP protein (Sinobiological). FAP protein was captured on the SA chip. Prior to ligand immobilization (flow paths 1 and 2, flow rate of 10 µL/min), FAP protein (10 µg/mL, flow rate of 5 µL/min, injection time of 600 s) was immobilized on flow path 2 using running buffer. The sensor surface was conditioned by injecting 1M NaCl three consecutive times in 50 mM NaOH. After each ligand injection, additional cleaning was performed using isopropanol in 1M NaCl and 50 mM NaOH (flow path 1 and 2, flow rate of 10 µL/min, injection time of 60 s).
The tested compound was dissolved in 100% dimethyl sulfoxide and diluted to 10 mM, then diluted in the assay buffer (PBS, pH 7.4, 1 mM TCEP ([…]), 0.05% P20, 2% dimethyl sulfoxide) to an appropriate maximum concentration. The analyte was run under the following conditions: analysis temperature of 15 °C, analysis step = all set to LMW kinetics; cycle type = single cycle (contact time of 90 s, dissociation time of 1800 s, flow rate of 30 µL/min, flow channels 1 and 2); channel detection = 2-1. Data was evaluated using the Biacore Insight Evaluation Software, and the data were fitted to a 1:1 binding model.
The Biacore results are shown in Table 2 below: pKD = -LogKD, where KD is the binding affinity of the compound to the FAP protein as measured by Biacore.
With `CCCCCC(=O)N[C@H]1CSCc2cccc(c2)CSC[C@@H](C(=O)N[C@@H](CNC(=O)CCCCNC(=O)CN2CCN(CC(=O)O)CCN(CC(=O)O)CCN(CC(=O)O)CC2)C(=O)O)NC(=O)[C@H](Cc2ccccc2)NC(=O)[C@H](CCC(N)=O)NC(=O)[C@H]([C@@H](C)O)NC(=O)[C@@H]2CCCN2C(=O)[C@@H]2CCN2C1=O` [JHDC40, Hex-[Cys(3MeBn)-hhy39-Pro-Thr-Gln-Phe-Cys]-DAPA-(APTA-DOTA)-OH] the “pKD (FAP)” value was “B (B: 7<pKD<8)”.
With `CCCCNC(=O)N[C@H]1CSCc2cccc(c2)CSC[C@@H](C(=O)N[C@@H](CNC(=O)CCCCNC(=O)CN2CCN(CC(=O)O)CCN(CC(=O)O)CCN(CC(=O)O)CC2)C(=O)O)NC(=O)[C@H](Cc2ccccc2)NC(=O)[C@H](CCC(N)=O)NC(=O)[C@H]([C@@H](C)O)NC(=O)[C@@H]2CCCN2C(=O)[C@@H]2CCN2C1=O` [JHDC41, nBu-urea-[Cys(3MeBn)-hhy39-Pro-Thr-Gln-Phe-Cys]-DAPA- (APTA-DOTA) -OH] the “pKD (FAP)” value was “B (B: 7<pKD<8)”.
For `CCCCNC(=O)N[C@H]1CSCc2cccc(c2)CSC[C@@H](C(=O)N[C@H](CC(=O)O)CC(=O)NCCNC(=O)CN2CCN(C(=O)CN3CCN(CC(=O)O)CCN(CC(=O)O)CCN(CC(=O)O)CC3)CC2)NC(=O)[C@H](CC2CCCCC2)NC(=O)[C@H](CCC(N)=O)NC(=O)[C@H]([C@@H](C)O)NC(=O)[C@@H]2CCCN2C(=O)[C@@H]2CCN2C1=O` [JHDC42, nBu-urea-[Cys(3MeBn)-hhy39-Pro-Thr-Gln-hhy34-Cys]-β-Glu-(EDA-piperazineacetic-DOTA)-OH] ({NHBu-CO}-C[Aze]PTQ[Cha]C[d(β3hD)]-{Ethylenediamine-Acetyl(4-DOTA-piperazinyl)}; linker 1-7 via mXylylene), the “pKD (FAP)” value was “B (B: 7<pKD<8)”.
For `CCCCNC(=O)N[C@H]1CSCc2cccc(c2)CSC[C@@H](C(=O)N[C@@H](CCC(=O)NCCN2CCN(C(=O)CN3CCN(CC(=O)O)CCN(CC(=O)O)CCN(CC(=O)O)CC3)CC2)C(N)=O)NC(=O)[C@H](Cc2ccccc2)NC(=O)[C@H](CCC(N)=O)NC(=O)[C@H]([C@@H](C)O)NC(=O)[C@@H]2CCCN2C(=O)[C@@H]2CCN2C1=O` [JHDC43, nBu-urea-[Cys(3MeBn)-hhy39-Pro-Thr-Gln-Phe-Cys]-Glu-(aminoethylpiperazine-DOTA)-NH2], the “pKD (FAP)” value was “B (B: 7<pKD<8)”.
With `CCCCCC(=O)N[C@H]1CSCc2cccc(c2)CSC[C@@H](C(=O)N[C@@H](CCC(=O)NCCN2CCN(C(=O)CN3CCN(CC(=O)O)CCN(CC(=O)O)CCN(CC(=O)O)CC3)CC2)C(N)=O)NC(=O)[C@H](Cc2ccccc2)NC(=O)[C@H](CCC(N)=O)NC(=O)[C@H]([C@@H](C)O)NC(=O)[C@@H]2CCCN2C(=O)[C@@H]2CCN2C1=O` [JHDC44, Hex-[Cys(3MeBn)-hhy39-Pro-Thr-Gln-Phe-Cys]-Glu-(aminoethylpiperazine-DOTA)-NH2] the “pKD (FAP)” value was “B (B: 7<pKD<8)”.
In the case of `CCCCCC(=O)N[C@H]1CSCc2cccc(c2)CSC[C@@H](C(=O)N[C@@H](CCC(=O)NCCCN2CCN(C(=O)CN3CCN(CC(=O)O)CCN(CC(=O)O)CCN(CC(=O)O)CC3)CC2)C(N)=O)NC(=O)[C@H](Cc2ccccc2)NC(=O)[C@H](CCC(N)=O)NC(=O)[C@H]([C@@H](C)O)NC(=O)[C@@H]2CCCN2C(=O)[C@@H]2CCN2C1=O` [JHDC45, Hex-[Cys(3MeBn)-hhy39-Pro-Thr-Gln-Phe-Cys]-Glu-(aminopropylpiperazine-DOTA)-NH2], the “pKD (FAP)” value is reported as “A (A: pKD >8)”.
With `CCCCNC(=O)N[C@H]1CSCc2cccc(n2)CSC[C@@H](C(=O)N[C@@H](CCC(=O)NCCN2CCN(C(=O)CN3CCN(CC(=O)O)CCN(CC(=O)O)CCN(CC(=O)O)CC3)CC2)C(=O)O)NC(=O)[C@H](CC2CCCCC2)NC(=O)[C@H](CCC(N)=O)NC(=O)[C@H]([C@@H](C)O)NC(=O)[C@@H]2CCCN2C(=O)[C@@H]2CCN2C1=O` [JHDC46, nBu-urea-[Cys(3MePy)-hhy39-Pro-Thr-Gln-hhy34-Cys]-Glu-(aminoethylpiperazine-DOTA)-OH] ({NHBu-CO}-C[Aze]PTQ[Cha]CE(NH(CH2)2(4-DOTA-piperazinyl))-OH; linker 1-7 via Pyridine(2,6-diCH2)) the “pKD (FAP)” value was “B (B: 7<pKD<8)”.
For `CCCCNC(=O)N[C@H]1CSCc2cccc(c2)CSC[C@@H](C(=O)N[C@@H](CCC(=O)NCCN2CCN(C(=O)CN3CCN(CC(=O)O)CCN(CC(=O)O)CCN(CC(=O)O)CC3)CC2)C(=O)O)NC(=O)[C@H](Cc2ccccc2)NC(=O)[C@H](CCC(N)=O)NC(=O)[C@H]([C@@H](C)O)NC(=O)[C@@H]2CCCN2C(=O)[C@@H]2CCN2C1=O` [JHDC50, nBu-urea-[Cys(3MeBn)-hhy39-Pro-Thr-Gln-Phe-Cys]-Glu-(aminoethylpiperazine-DOTA)-OH], the “pKD (FAP)” value was “B (B: 7<pKD<8)”.
With `CCCCNC(=O)N[C@H]1CSCc2cccc(c2)CSC[C@@H](C(=O)N[C@@H](CCNC(=O)CCCNC(=O)CN2CCN(CC(=O)O)CCN(CC(=O)O)CCN(CC(=O)O)CC2)C(=O)O)NC(=O)[C@H](CC2CCCCC2)NC(=O)[C@H](CCC(N)=O)NC(=O)[C@H]([C@@H](C)O)NC(=O)[C@@H]2CCCN2C(=O)[C@@H]2CCN2C1=O` [JHDC55, nBu-urea-[Cys(3MeBn)-hhy39-Pro-Thr-Gln-hhy34-Cys]-DABA-(ABA-DOTA)-OH] ({NHBu-CO}-C[Aze]PTQ[Cha]C[Dab]([GABA-DOTA])-OH; linker 1-7 via mXylylene) the “pKD (FAP)” value was “A (A: pKD >8)”.
With `CCCCCC(=O)N[C@H]1CSCc2cccc(c2)CSC[C@@H](C(=O)NCCOCCNC(=O)CN2CCN(CC(=O)O)CCN(CC(=O)O)CCN(CC(=O)O)CC2)NC(=O)[C@H](Cc2ccccc2)NC(=O)[C@H](CCC(N)=O)NC(=O)[C@H]([C@@H](C)O)NC(=O)[C@@H]2CCCN2C(=O)[C@@H]2CCN2C1=O` [JHDC 10, Hex[Cys(3MeBn)-hhy39-Pro-Thr-Gln-Phe-Cys]-DAPEG2-DOTA] the “pKD (FAP)” value was “B (B: 7<pKD<8)”.
`CCCCCC(=O)N[C@H]1CSCc2cccc(c2)CSC[C@@H](C(=O)N[C@@H](CCC(=O)NCCOCCOCCOCCNC(=O)CN2CCN(CC(=O)O)CCN(CC(=O)O)CCN(CC(=O)O)CC2)C(=O)O)NC(=O)[C@H](CC2CCCCC2)NC(=O)[C@H](CCC(N)=O)NC(=O)[C@H]([C@@H](C)O)NC(=O)[C@@H]2CCCN2C(=O)[C@@H]2CCN2C1=O` [JHDC 16, Hex[Cys(3MeBn)-hhy39-Pro-Thr-Gln-hhy34-Cys]-Glu-(DAPEG4-DOTA)-OH] (Hexanoyl-C[Aze]PTQ[Cha]CE(X3)-OH; linker 1-7 via mXylylene) was tested, and the “pKD (FAP)” value was “B (B: 7<pKD<8)”.
For `CCCCCC(=O)N[C@H]1CSCc2cccc(c2)CSC[C@@H](C(=O)N[C@@H](CCC(=O)NCCOCCNC(=O)CN2CCN(CC(=O)O)CCN(CC(=O)O)CCN(CC(=O)O)CC2)C(=O)O)NC(=O)CNC(=O)[C@H](CC2CCCCC2)NC(=O)[C@H](CCC(N)=O)NC(=O)[C@H]([C@@H](C)O)NC(=O)[C@@H]2CCCN2C(=O)[C@@H]2CCN2C1=O` [JHDC 17, Hex[Cys(3MeBn)-hhy39-Pro-Thr-Gln-hhy34-Gly-Cys]-Glu-(DAPEG2-DOTA)-OH] (Hexanoyl-C[Aze]PTQ[Cha]GCE(NH(CH2)2O(CH2)2NHDOTA)-OH; linker 1-8 via mXylylene), the “pKD (FAP)” value was “B (B: 7<pKD<8)”.
